# Measured values as given in the supplement of paper PMC8728848.
# The other results are listed elsewhere or left out.
# How the values were obtained:
# Experiment in all cases: glycan array binding signal (z-score within array); higher = stronger binding
# Settings in all cases: glycan notation: IUPAC condensed, linker removed
# [1] = target: Man(a1-2)Man(a1-2)Man(a1-3)Man
# In short: (§1)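 Negative Z-scores can be read as non-binding. The Z-score is calculated within each array and then averaged across arrays of one protein sequence at different concentrations or buffers and across linkers. Arrays, 3228 in all, were curated from the Consortium for Functional Glycomics database and kept only where the protein sequence was available.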
# [2] = target: Man(a1-2)Man(a1-2)Man(a1-6)[Man(a1-3)]Man
# In short: as §1
# Man(a1-2)Man(a1-3)Man = target: Man(a1-2)Man(a1-3)Man
# In short: as §1
# [3] = target: Man(a1-2)Man(a1-3)[Man(a1-2)Man(a1-6)]Man
# In short: as §1
# [4] = target: Man(a1-2)Man(a1-3)[Man(a1-2)Man(a1-6)]Man(a1-6)[Man(a1-2)Man(a1-2)Man(a1-3)]Man
# In short: as §1
# [5] = target: Man(a1-2)Man(a1-3)[Man(a1-2)Man(a1-6)]Man(a1-6)[Man(a1-2)Man(a1-2)Man(a1-3)]Man(b1-4)GlcNAc(b1-4)GlcNAc
# In short: as §1
# [6] = target: Man(a1-2)Man(a1-3)[Man(a1-6)]Man(a1-6)[Man(a1-2)Man(a1-3)]Man(b1-4)GlcNAc(b1-4)GlcNAc
# In short: as §1
# [7] = target: Man(a1-2)Man(a1-6)[Man(a1-3)]Man(a1-6)[Man(a1-2)Man(a1-2)Man(a1-3)]Man
# In short: as §1
# [8] = target: Man(a1-2)Man(a1-6)[Man(a1-3)]Man(a1-6)[Man(a1-2)Man(a1-2)Man(a1-3)]Man(b1-4)GlcNAc(b1-4)GlcNAc
# In short: as §1
# Man(a1-3)[Man(a1-6)]Man = target: Man(a1-3)[Man(a1-6)]Man
# In short: as §1
# [9] = target: Man(a1-3)[Man(a1-6)]Man(a1-6)[Man(a1-2)Man(a1-3)]Man(b1-4)GlcNAc(b1-4)GlcNAc
# In short: as §1
# [10] = target: Man(a1-3)[Man(a1-6)]Man(a1-6)[Man(a1-3)]Man
# In short: as §1
# [11] = target: Man(a1-3)[Man(a1-6)]Man(a1-6)[Man(a1-3)]Man(b1-4)GlcNAc(b1-4)GlcNAc
# In short: as §1
# [12] = target: Man(a1-3)[Man(a1-6)]Man(b1-4)GlcNAc(b1-4)GlcNAc
# In short: as §1
# [13] = target: Man(a1-3)[Man(a1-6)]Man(b1-4)GlcNAc(b1-4)[Fuc(a1-6)]GlcNAc
# In short: as §1
# Man(a1-6)Man = target: Man(a1-6)Man
# In short: as §1
# Man(b1-4)GlcNAc = target: Man(b1-4)GlcNAc
# In short: as §1
# MurNAc(b1-4)GlcNAc = target: MurNAc(b1-4)GlcNAc
# In short: as §1
# Neu5Ac(a2-3)Gal = target: Neu5Ac(a2-3)Gal
# In short: as §1
# [14] = target: Neu5Ac(a2-3)Gal(b1-3)GalNAc
# In short: as §1
# [15] = target: Neu5Ac(a2-3)Gal(b1-3)GalNAc(b1-3)Gal(a1-4)Gal(b1-4)Glc
# In short: as §1
# [16] = target: Neu5Ac(a2-3)Gal(b1-3)GalNAc(b1-3)Gal(b1-4)GlcNAc
# In short: as §1
# [17] = target: Neu5Ac(a2-3)Gal(b1-3)GalNAc(b1-4)[Neu5Ac(a2-3)]Gal(b1-4)Glc
# In short: as §1
# [18] = target: Neu5Ac(a2-3)Gal(b1-3)GalNAc(b1-4)[Neu5Ac(a2-8)Neu5Ac(a2-3)]Gal(b1-4)Glc
# In short: as §1
# [19] = target: Neu5Ac(a2-3)Gal(b1-3)GalNAc6S
# In short: as §1
# [20] = target: Neu5Ac(a2-3)Gal(b1-3)GlcNAc
# In short: as §1
# [21] = target: Neu5Ac(a2-3)Gal(b1-3)GlcNAc(b1-2)Man
# In short: as §1
# [22] = target: Neu5Ac(a2-3)Gal(b1-3)GlcNAc(b1-2)Man(a1-3)[GlcNAc(b1-4)][Neu5Ac(a2-3)Gal(b1-3)GlcNAc(b1-2)Man(a1-6)]Man(b1-4)GlcNAc(b1-4)GlcNAc
# In short: as §1
# [23] = target: Neu5Ac(a2-3)Gal(b1-3)GlcNAc(b1-2)Man(a1-3)[Neu5Ac(a2-3)Gal(b1-3)GlcNAc(b1-2)Man(a1-6)]Man(b1-4)GlcNAc(b1-4)GlcNAc
# In short: as §1
# [24] = target: Neu5Ac(a2-3)Gal(b1-3)GlcNAc(b1-3)Gal(b1-3)GlcNAc
# In short: as §1
# [25] = target: Neu5Ac(a2-3)Gal(b1-3)GlcNAc(b1-3)Gal(b1-4)GlcNAc
# In short: as §1
# [26] = target: Neu5Ac(a2-3)Gal(b1-3)GlcNAc(b1-3)GalNAc
# In short: as §1
# [27] = target: Neu5Ac(a2-3)Gal(b1-3)GlcNAc(b1-4)Gal(b1-4)Glc
# In short: as §1
# [28] = target: Neu5Ac(a2-3)Gal(b1-3)GlcNAc(b1-6)GalNAc
# In short: as §1
# [29] = target: Neu5Ac(a2-3)Gal(b1-3)GlcNAc6S
# In short: as §1
# [30] = target: Neu5Ac(a2-3)Gal(b1-3)[Fuc(a1-4)]GlcNAc
# In short: as §1
# [31] = target: Neu5Ac(a2-3)Gal(b1-3)[Fuc(a1-4)]GlcNAc(b1-3)Gal(b1-3)[Fuc(a1-4)]GlcNAc
# In short: as §1
# [32] = target: Neu5Ac(a2-3)Gal(b1-3)[Fuc(a1-4)]GlcNAc(b1-3)Gal(b1-4)[Fuc(a1-3)]GlcNAc
# In short: as §1
binder,measurement,setting,value
GSL-I (Griffonia simplicifolia) (protein) FNLPNFWSDVKDNIIFQGDANTTAGTLQLCKTNQYGNPLQYRAGRALYSDPVQLWDNKTGSVASFYTEFTFFLKITGDGPADGLAFFLAPPDSDVKDAGAYLGLFNKSTATQPSKNQVVAVEFDTWKNTDFPEPSYRHIGINVNSIVSVATKRWEDSDIFSGKIATARISYDGSAKILTVVLSYPDGADYILSHSVDLSKNLPNPIRVGISASTGANQFLTVYVLSWRFSSALQSTSVNAAMGPEIIRTVV,glycan array binding signal (z-score),[1],-0.262
same,glycan array binding signal (z-score),[2],-0.208
same,glycan array binding signal (z-score),Man(a1-2)Man(a1-3)Man,-0.209
same,glycan array binding signal (z-score),[3],-0.135
same,glycan array binding signal (z-score),[4],0.069
same,glycan array binding signal (z-score),[5],-0.033
same,glycan array binding signal (z-score),[6],-0.203
same,glycan array binding signal (z-score),[7],-0.13
same,glycan array binding signal (z-score),[8],-0.302
same,glycan array binding signal (z-score),Man(a1-3)[Man(a1-6)]Man,-0.245
same,glycan array binding signal (z-score),[9],0.411
same,glycan array binding signal (z-score),[10],-0.11
same,glycan array binding signal (z-score),[11],-0.232
same,glycan array binding signal (z-score),[12],-0.151
same,glycan array binding signal (z-score),[13],-0.305
same,glycan array binding signal (z-score),Man(a1-6)Man,-0.131
same,glycan array binding signal (z-score),Man(b1-4)GlcNAc,-0.164
same,glycan array binding signal (z-score),MurNAc(b1-4)GlcNAc,-0.186
same,glycan array binding signal (z-score),Neu5Ac(a2-3)Gal,-0.186
same,glycan array binding signal (z-score),[14],-0.31
same,glycan array binding signal (z-score),[15],-0.15
same,glycan array binding signal (z-score),[16],-0.315
same,glycan array binding signal (z-score),[17],-0.245
same,glycan array binding signal (z-score),[18],-0.109
same,glycan array binding signal (z-score),[19],-0.211
same,glycan array binding signal (z-score),[20],-0.225
same,glycan array binding signal (z-score),[21],-0.133
same,glycan array binding signal (z-score),[22],-0.263
same,glycan array binding signal (z-score),[23],-0.225
same,glycan array binding signal (z-score),[24],-0.152
same,glycan array binding signal (z-score),[25],-0.234
same,glycan array binding signal (z-score),[26],-0.127
same,glycan array binding signal (z-score),[27],-0.224
same,glycan array binding signal (z-score),[28],-0.234
same,glycan array binding signal (z-score),[29],0.048
same,glycan array binding signal (z-score),[30],-0.301
same,glycan array binding signal (z-score),[31],-0.009
same,glycan array binding signal (z-score),[32],-0.244
